From ChEMBL document CHEMBL4888484, “Replenishing the malaria drug discovery pipeline: Screening and hit evaluation of the MMV Hit Generation Library 1 (HGL1) against asexual blood stage Plasmodium falciparum ,using a nano luciferase reporter read-out” (2022)
Among all 150,000 compounds or so, about 540 (0.36%) showed an effect of 50% or more. The list shows a part of the results.

test system: Plasmodium falciparum; assay: Primary screen in NF54 nanoGlo assay, in single point, at 2uM, 72h; a lower Z score goes with more inhibition; assay type: functional, Erythrocyte; conditions: timepoint 72 hour

SMILES	% Inhibition [%]	Z score
COc1ccc(CN(C(=O)NC2CCCCC2)C(C)C)cc1OS(C)(=O)=O	1	-0.25
C[C@@H](CNc1nccs1)c1ccc(S(C)(=O)=O)cc1	-1	0.19
Cn1c(NC(=O)C(C)(C)S(=O)(=O)C2CC2)nc2cccc(Cl)c21	6	-0.62
CN(C)Cc1cc(NC(=O)c2cc[nH]c(=O)c2)ccc1Cl	0	0.06
N#Cc1c[nH]c(C(=O)NC(c2ccccn2)[C@H]2C[C@@H](O)C2)c1 (stereo not given in full)	3	-0.55
C#CCOCCN(C)Cc1cnc(CC)s1	-2	0.17
CCCN(CC(=O)OC)Cc1csc(-c2ccccn2)n1	-10	1.23
O=C(Nc1cnc(Oc2ccccc2F)nc1)Nc1ccccc1Cl	3	-0.62
c1ccc(-n2cccc2-c2nnc3cnccn23)nc1	1	-0.17
COc1nc(N)nc(N(C)C(=O)c2ccccc2)n1	8	-1.59
COc1cccc(-c2cc3n(n2)CCCN(Cc2cccc(F)c2)C3)c1	-13	1.42
Cn1nccc1[C@@H]1CN(C(=O)NCc2ccon2)CCO1	-3	0.43
Fc1ccc(CN2CC(n3ccnn3)C2)cc1	4	-0.59
Cc1ccc(CNC(=O)CN2CCN(C(=O)Nc3ccc(Br)cc3)CC2=O)o1	-14	1.76
CN(C)c1ccc(OCCCN2C(=O)CNC2=O)cc1	-35	4.13
COC1(OC)CC2(CN(c3ncc(C#N)cc3Cl)[C@H]2C(C)C)C1	-2	0.21
CC(C)CN(CCC(=O)Nc1ccc(F)cc1)c1nc(-c2ccc(F)cc2)nc2cc(Cl)ccc12	0	-0.07
CCCCCc1cn(C[C@H]2CCS(=O)(=O)C2)nn1	-19	2.41
Cc1cccc(NC(=O)c2c[nH]c3nc(C)ccc3c2=O)c1	4	-0.5
Cc1cc(C)cc(OCC(=O)NCCCN(C)C)c1	37	-4.18
COc1cc(NC(=O)N[C@H]2C[C@@](CO)(c3ccccc3)C2)n(C)n1	-8	1.47
CC(=O)N1CC(OCC(=O)Nc2ccc(F)cc2Nc2ccccc2F)C1	-16	2.77

SMILES	% Inhibition [%]	Z score
Cc1cc(C)nc(N2CCC[C@H](C(=O)Nc3ccc(N4CCCS4(=O)=O)cc3)C2)n1	5	-0.93
Cc1ccnc(N2CCC[C@@]3(CCC(=O)N(Cc4cnc(C)cn4)C3)C2)c1	-8	1.58
CCCOCCCNc1c(-c2ccc(OC)c(OC)c2)cnc2ncnn12	0	0.03
COc1ccc(-c2onc(C)c2C(=O)NCCOc2ccccc2)cc1	38	-5.08
COCc1nc([C@H]2CCCN(CC(N)=O)C2)n(CC(C)(C)O)n1	-13	2.24
Cc1nnc(CN(C)Cc2cc(Cl)ccc2Cl)n1C	-17	3.44
O=S(=O)(c1ccccc1)N1CC[C@H](c2nc(-c3ccccc3)no2)C1	-5	0.95
Nc1cc(C(=O)O)cc(C(F)(F)F)c1	-2	0.33
O=C(CCn1cncn1)Nc1ccccn1	-11	1.54
CC[C@H](C)NC(=O)Cn1nc2ccc(C(=O)NCc3ccccc3)cn2c1=O	-24	2.07
Cc1ccc(CS(=O)(=O)Cc2nnnn2-c2ccccc2)cc1	-17	1.67
CC(=O)Nc1ccc(S(=O)(=O)N2CC(OCc3cccc(F)c3)C2)cc1	-13	2.42
Fc1ccc(NCc2cc(-c3ccccc3)[nH]n2)c(F)c1	-6	0.55
Cc1sc(-c2ccn[nH]2)cc1NC(=O)c1ccc(F)cc1	-4	0.36
C[C@@H](c1ccc(S(C)(=O)=O)cc1)N1CCC(n2cncn2)CC1	-8	1.46
CCCN(CC(=O)Nc1cccc(S(=O)(=O)N2CCOCC2)c1)S(=O)(=O)c1ccc(Cl)c(Cl)c1	-15	2.48
CC[C@H]1c2ccsc2CCN1CCS(=O)(=O)c1ccc(Cl)cc1	-11	1.5
CCN(C[C@H]1CCOC1)C(=O)CCc1nc(-c2ccsc2)no1	-3	0.36
CCc1cc(Cl)cnc1NC(=O)c1cccn(CC(C)C)c1=O	-6	1.14
CN(CC1CCCC1O)C(=O)c1cccc2ccc(O)nc12 (stereo not given)	0	-0.03
COc1ccccc1[C@H]1CN(C(=O)c2ccc3cccnc3c2)C[C@@H]1C(=O)O	-4	0.68
CN(C(=O)c1cccn(Cc2cccc(F)c2)c1=O)c1ccccc1	-21	2.72

SMILES	% Inhibition [%]	Z score
CCCCc1noc(CS(=O)(=O)Cc2cccc3ccccc23)n1	-6	1
Cc1ccc(S(C)(=O)=O)cc1NC(=O)N1CCCC[C@@H]1CN1CCCC1	-11	1.43
C[C@@H](c1ccccn1)N(Cc1ccccc1)C(=O)C1CCCC1	-13	1.74
CNS(=O)(=O)CC(=O)N1CCC(c2ccsc2)CC1	-8	0.76
Cc1cc(C)cc(C(=O)N2C[C@@H]3CC[C@H]2CN(Cc2cscn2)C3)c1	-6	1.03
O=C(Nc1ccc2c(c1)OCCO2)c1cccc2c1C(=O)N(C1CCCCC1)C2	10	-1.33
O=C1ON=C2C3CC4CC12CC1(C3)C(=O)ON=C41	-20	2.58
Cc1noc(C(=O)N2CCN(Cc3ccc4c(c3)OCO4)CC2)c1Cl	-8	1.24
Cc1ccc(C(=O)NC2CC2)cc1NS(=O)(=O)c1ccc2c(c1)CCCC2	-11	1.16
Cn1cc(C[C@@H](CNC(=O)c2cccc(Cl)c2F)C(N)=O)cn1	-10	0.83
CC(C)C[C@H](OC(=O)c1cccnc1)c1ccccn1	-4	0.41
O=C(Nc1nc(CCCc2c[nH]c3ccccc23)n[nH]1)c1ccccn1	6	-0.72
Cc1nccc(OC2CCN(S(=O)(=O)c3ccc4c(c3)CCO4)CC2)n1	2	-0.28
O=C1NC2(CCN(S(=O)(=O)c3ccc(F)c(F)c3)CC2)Nc2ccccc21	-13	1.31
C#CCCC1(CCC(=O)N2C[C@H]3CCCC[C@H]3C2)N=N1	-2	0.29
C[C@H]1CN(c2cccc(Cl)c2C#N)CCCO1	-12	1.41
CCc1c(C)nn(C)c1NC(=O)C[C@H]1C(=O)NCCN1Cc1ccccc1	-11	2.01
CCOc1ccc(S(=O)(=O)N[C@H]2CC[C@@H](CC(=O)O)C2)c(C)c1	-1	0.16
CC(=O)[C@H]1CCN(c2nc(C)cc(C)n2)C1	-12	2.26
CC1(C)CN(C(=O)Nc2cnn(-c3ncc(Cl)cc3Cl)c2)CC(C)(C)O1	-14	1.58
COc1ccc(NC(=O)Cn2cc(-c3noc(-c4cccnc4)n3)nc2C)cc1	27	-3.61
CC(C)C(=O)N1CC(C)(C)c2cc(S(=O)(=O)N3CCc4ccccc4C3)ccc21	-2	0.26

SMILES	% Inhibition [%]	Z score
CCCNC(=O)C1CCN(C(=O)[C@]2(C)CCOc3ccccc32)CC1	-11	1.88
Cc1nc([C@@H](C)Cn2nc(C(F)(F)F)cc2C2CC2)sc1C(=O)O	-31	3.61
CCc1nnc(N(C)C[C@H]2COc3ccccc3O2)nc1CC	-18	1.81
O=C(Nc1cc(Cl)c(OCC(F)(F)F)c(Cl)c1)c1ncncc1Cl	29	-3.88
COc1ccccc1C(=O)NCn1cncn1	-9	1.07
O=C(Cn1ncnn1)Nc1c(F)c(F)c(F)c(F)c1F	1	-0.17
Cc1ccc(NC2CCN(CCN3CCCCC3)CC2)cc1	1	-0.18
NC(=O)CCC1NC2(C(=O)Nc3ccc(Cl)cc32)C2C(=O)N(CC3CCCO3)C(=O)C12 (stereo not given)	-3	0.44
CCOc1ccccc1NC(=O)CC1CCN(S(=O)(=O)c2ccc3c(c2)CCN3C(C)=O)CC1	-15	1.37
Cc1ccc(O[C@H]2CCCN(C(=O)NCc3cccs3)C2)nn1	-6	0.93
O=c1ccc(-c2noc(Cc3cccc(Cl)c3)n2)c[nH]1	2	-0.31
Cc1cc(NC(=O)NCc2nc(C(F)(F)F)cs2)c[nH]c1=O	-9	1.11
C[C@@H](O)CNc1cccc(F)c1C(N)=O	-4	0.74
O=C(c1ccccn1)N(CCN1CCCC1)C1CCOCC1	-2	0.35
O=C(O)[C@H]1CCCCN1C(=O)c1ccc(Cl)cc1F	-10	1.35
CN(C)C(=O)c1ccc(C(=O)Nc2ccc(C(N)=O)c(N3CCCCC3)c2)cc1	-3	0.56
COc1ccc(N(CCc2ccccc2)C(=O)c2cnns2)cc1	-7	1.09
CC(C)C[C@@H](NC(=O)OC(C)(C)C)C(=O)N[C@H](CC(C)C)C(=O)N[C@@H](C(=O)OCc1ccccc1)C(C)C	-18	2.31
CN1CCN(CCOc2ccccc2)C[C@@]12CCC(=O)N(CC1CC1)CC2	-5	0.68
